# Results: article PMC4336329 (PLoS ONE, 2015)
# The campaign covered roughly 310,000 compounds. About 2,200 (0.71%) showed an effect of 50% or more. The effect is printed as a negative number. The list shows a part of the results.
# Biological target: human ether-à-go-go-related gene (hERG) potassium channel (human, UniProt Q12809)
# Assay: primary screen, population patch clamp on CHO cells stably expressing hERG
# Chain of human ether-à-go-go-related gene (hERG) potassium channel (Q12809 whole entry, looked up): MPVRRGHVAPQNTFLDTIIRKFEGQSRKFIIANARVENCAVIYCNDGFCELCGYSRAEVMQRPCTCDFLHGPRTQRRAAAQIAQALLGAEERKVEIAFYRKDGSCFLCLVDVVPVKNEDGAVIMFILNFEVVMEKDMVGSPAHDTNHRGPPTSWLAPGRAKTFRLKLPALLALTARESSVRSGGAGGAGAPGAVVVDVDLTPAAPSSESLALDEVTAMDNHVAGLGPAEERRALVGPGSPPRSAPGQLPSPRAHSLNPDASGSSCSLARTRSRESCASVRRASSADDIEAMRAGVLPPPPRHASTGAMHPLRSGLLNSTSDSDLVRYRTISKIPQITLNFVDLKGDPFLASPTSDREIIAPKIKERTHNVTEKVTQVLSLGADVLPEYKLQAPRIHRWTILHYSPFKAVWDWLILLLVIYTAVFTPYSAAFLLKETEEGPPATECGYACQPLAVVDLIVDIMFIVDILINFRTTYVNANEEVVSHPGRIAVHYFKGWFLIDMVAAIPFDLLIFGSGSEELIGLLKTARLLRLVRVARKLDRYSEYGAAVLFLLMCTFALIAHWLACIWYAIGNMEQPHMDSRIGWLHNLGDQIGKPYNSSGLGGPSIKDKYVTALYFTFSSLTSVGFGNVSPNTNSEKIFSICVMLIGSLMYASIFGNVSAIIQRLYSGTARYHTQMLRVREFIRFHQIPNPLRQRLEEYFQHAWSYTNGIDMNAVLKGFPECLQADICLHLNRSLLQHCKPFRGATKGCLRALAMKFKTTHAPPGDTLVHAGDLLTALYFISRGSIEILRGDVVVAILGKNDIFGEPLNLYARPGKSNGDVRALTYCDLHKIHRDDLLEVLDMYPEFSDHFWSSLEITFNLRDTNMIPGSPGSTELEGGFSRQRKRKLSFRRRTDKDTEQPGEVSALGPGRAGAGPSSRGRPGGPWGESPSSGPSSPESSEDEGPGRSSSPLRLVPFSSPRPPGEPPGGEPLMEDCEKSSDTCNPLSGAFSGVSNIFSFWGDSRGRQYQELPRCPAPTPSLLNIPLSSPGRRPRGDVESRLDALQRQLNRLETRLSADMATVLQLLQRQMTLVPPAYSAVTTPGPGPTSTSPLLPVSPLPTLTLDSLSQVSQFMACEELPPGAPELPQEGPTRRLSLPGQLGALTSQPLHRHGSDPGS
row,SMILES,"hERG current change (%, negative = inhibition) at 1uM"
1,CC1Cc2ccccc2N1C(=O)C1CCN(S(=O)(=O)Cc2ccccc2)CC1 (centres unmarked),5.09%
2,CC(C(=O)NC1=NCCS1)N1C(=O)c2ccccc2C1=O (centres unmarked),4.77%
3,NC(=O)C1(N2CCCCC2)CCN(S(=O)(=O)c2ccccc2)CC1,0.32%
4,N#Cc1ccccc1Cn1cc(C(=O)c2cccs2)c2ccccc21,8.98%
5,CCSc1nnc(-c2cccnc2)n1Cc1ccco1,-2.58%
6,O=S(=O)(NC1c2cccc3cccc(c23)C1Sc1ncccn1)c1ccccc1 (centres unmarked),31.5%
7,O=C(c1ccc(S(=O)(=O)N2CCCC2)cc1)N1CCCCCC1,14.7%
8,O=C(CN1C(=O)c2ccccc2S1(=O)=O)Nc1ccc(S(=O)(=O)N2CCCCC2)cc1,13.4%
9,COc1cccc(-c2cc(CC3(O)CCN(CCCc4ccccc4)CC3)on2)c1,-39.3%
10,O=C(COC(=O)Cc1n[nH]c(=O)c2ccccc12)NNC(=O)c1ccccc1,1.68%
11,CC(=O)/C(=N/Nc1ccc(C)cc1)Sc1nnc(CCc2ccccc2)n1-c1ccccc1,3.45%
12,CCc1cc2c(C)ccc(C)c2nc1SCC(=O)Nc1cc(C)on1,8.37%
13,COc1ccc(NC(=O)C2CCN(C(=O)Nc3ccccc3)CC2)cc1S(=O)(=O)N(C)C,9.54%
14,O=C(NCCNC(=O)c1ccccn1)c1ccccc1,13.4%
15,COc1cc(NC(=O)Cc2c(C(=O)O)[nH]c3ccccc23)cc(OC)c1OC,0.394%
16,O=S(=O)(Nc1nnc(C2CCCCC2)s1)c1ccc(F)cc1,-8.42%
17,CN(C)C(=S)Nc1ccc(Br)cc1Cl,7.39%
18,C#CCOCCOCCOCCNc1nc(N2CCN(C(=O)[C@H]([C@@H](C)CC)n3cc([C@@H](N)CC(C)C)nn3)CC2)nc(N2CCN(C(=O)[C@H](CCCCN)n3cc([C@@H](N)CO)nn3)CC2)n1.Cl,12.8%
19,Cc1ccc(-c2c[n+](CC(=O)Nc3ccccc3C)c3n2CCC3)cc1.[Cl-],6.96%

row,SMILES,"hERG current change (%, negative = inhibition) at 1uM"
1,O=C(Nc1ccc(Cl)cc1C(=O)c1ccccc1)c1ccccc1,3.74%
2,COc1ccc(-c2nnc(N3CCCCC3)c3ccccc23)cc1,-7.58%
3,COc1cc(Cl)cc(C=O)c1OCC(=O)O,16%
4,O=C(Nc1nccs1)c1cccc(N2C(=O)c3cccc4c([N+](=O)[O-])ccc(c34)C2=O)c1,0.914%
5,CC1=NNC(=O)C1CC(=O)N/N=C/C(C)=C/c1ccccc1 (centres unmarked),11.3%
6,CCN(C(=O)c1cc2cc(OC)ccc2oc1=O)c1ccccc1,15%
7,C[C@]1(C(=O)NCCN2CCOCC2)C=C[C@@H](Cc2ccccc2)N1C(=O)c1ccccc1,3.41%
8,COc1ccc2c(c1)OC13CCN(C)CC1C2C(C(=O)c1ccc(F)cc1)C(=O)N3 (centres unmarked),-4.16%
9,Nc1ccc2oc(=O)c(-c3ccccc3)cc2c1,9.3%
10,COc1ccc(CN2CCCC(C(=O)Nc3cccc(-n4cnnn4)c3)C2)c(C)c1C (centres unmarked),2.01%
11,COc1cc(OC)c(C(=O)N2CCN(c3ccccn3)CC2)cc1OC,18.9%
12,CCCC(c1nnnn1Cc1ccco1)N1CCN(C2CCCC2)CC1 (centres unmarked),-2.86%
13,O=Cc1ccc(C(=O)O)cc1,13.6%
14,Cc1cccc2cc(CN(Cc3ccccc3)C(=S)NCCCN(C)C)c(=O)[nH]c12,-2.04%
15,COc1cccc(-n2c(SCC(=O)OC(C)C)nnc2-c2cccnc2)c1,10.4%
16,COc1cccc(S(=O)(=O)Nc2ccc(C(=O)Nc3ccncc3)cc2)c1,6.68%
17,CCC1(C)Cc2c(sc3nc(SC)[nH]c(=S)c23)CO1 (centres unmarked),5.68%
18,CCc1nnc(NC(=O)c2ccc(COc3ccccc3)o2)s1,3.21%
19,CCC(C)OC(=O)C1=C(C)OC23OC(N)=C(C#N)C12C(=O)c1ccccc13 (centres unmarked),6.17%

row,SMILES,"hERG current change (%, negative = inhibition) at 1uM"
1,COc1ccc(/C=N/OCC(=O)N2CCCC2)c(OC)c1,9.13%
2,CCN(CC)C(=O)Oc1cc(=O)n(C)c2ccccc12,6.19%
3,O=C(CSc1nnc2ccccn12)NNC(=O)c1ccc([N+](=O)[O-])cc1,5.86%
4,Cc1onc(-c2c(Cl)cccc2Cl)c1C(=O)N=C(N)N1CC(C)OC(C)C1 (centres unmarked),5.85%
5,COc1cc(NC(=O)C2CCN(c3cnccn3)CC2)cc(OC)c1OC,12.8%
6,O=C(O)CCc1ccc(-c2ccc(Cl)cc2)o1,1.26%
7,CCOc1ccc(S(=O)(=O)N2CCC(C(=O)OCc3cccc(OC)c3OC)CC2)cc1,1.27%
8,CCS(=O)(=O)N1CCC(C(=O)c2ccc(Cl)cc2)CC1,-9.14%
9,COCCn1c(SCC(=O)Nc2cc(C)on2)nnc1-c1ccccc1,13.9%
10,O=S(=O)(Nc1ccccc1N1CCCCC1)c1cccs1,9.36%
11,CCOc1cc(C2NC(=O)NC(O)(C(F)(F)F)C2C(=O)c2ccc(Cl)cc2)ccc1O (centres unmarked),11.7%
12,Cc1sc2nc(C3CC3)nc(N3CCN(C(=O)c4ccc(Cl)cc4)CC3)c2c1C.Cl,-9.15%
13,C=CCNC(=O)COC(=O)COc1ccc(Cl)cc1,7.74%
14,Cc1ccc(NC(=O)CN(C)CC(=O)Nc2ccccc2C#N)cc1,9.73%
15,Cc1c(/C=C/C(=O)c2ccc(O)cc2)cnn1C,-0.752%
16,COc1ccc(CCNC(=O)/C=C/c2ccco2)cc1,2.84%
17,O=C(NC1CCSc2ccccc21)c1ccccc1Cl (centres unmarked),4.67%
18,C=CCn1c(SCC(C)=O)nnc1-c1cc(-c2ccccc2)sc1N,1.84%
